The full ranking holds about 81,000 sequences; the median of “one-hybrid fitness for binding parS DNA” is about -0.17, and the highest 2% start at about 0.51. Some of the results follow.
B1: Caulobacter ParB omega fusion; a variant is named by its letters at X, in order, B8GW30 (parent)
chain: MESVVVGEPGMSEGRRGLGRGLSALLGEVDAAPAQAPGEQLGGSREAPIEILQRNPDQPRRTFREEDLEDLSNSIREKGVLQPILVRPSPDTAGEYQIVAGERAWRAAQRAGLKTVPIMVRELDDLAVLEIGIIENVQRADLNVLEEALSYKVLMEKFERTQENIAQTIGKSXSHVANXMRLLXLPDEVQSYLVSGELTAXHARAIAAAADPVALAKQIIEGGLSVRETEALARKAPNLSAGKSKGGRPPRVKDTDTQALESDLSSVLGLDVSIDHRGSTGTLTITYATLEQLDDLCNRLTRGI

Variants of: B1
Assay: one-hybrid fitness for binding parS DNA (scaled: cognate 1, non-cognate 0); higher = stronger binding
Conditions: with parS DNA site
Summary of the method: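 The reporter was HIS3, with the binding site 19 bp from the promoter, in E. coli USO used for bacterial one-hybrid selection of Caulobacter ParB libraries with four specificity codons randomised. Growth was on M9 lacking histidine, with 0.1 mM IPTG and 5 mM 3-AT, for 48 hours at 37°C. Illumina sequencing covered plasmids before and after selection; three replicate libraries were pooled and variants with under 10 reads dropped. A fitness score is the log change in variant-to-wild-type read ratio, rescaled to the cognate and non-cognate references.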

one-hybrid fitness for binding parS DNA, 0.526:
RHHA

one-hybrid fitness for binding parS DNA, 0.223:
FQCS

one-hybrid fitness for binding parS DNA, 0.201:
KHGP

one-hybrid fitness for binding parS DNA, 0.362:
RMCM

one-hybrid fitness for binding parS DNA, ≤ 0.2:
RNDF
TGVC
SRNH
SLIM
KTWG
ILQI
NGAT
SHFF
WNEG
WRNE
LCNK
ATRH
NPEL
GHRN
AECP
RERY
YNSW
KMTV
GSHW
ENVS
HISW
HLND
LLLL
PYAI
VWHG
MPSP
LLSN
GKGG
KGQS
DVGC
LHIS
QCAP
NIDR
QCYK
CHRR
ANEG
CGNT
SQCM
NCRF
WHDC
QHHD
TISD
HDDY
ILLT
TLTV
LWLG
AVDN
TRRH
GLTG
CSAL
TRFG
TPDR
MLMI
QTGH
WVTR
RKTW
AMSW
QNHM
PMLC
VLMT
CPHL
GASG
TVPE
TEVG
NTHV
YSYW
AAPR
TMSC
IRAK
TFWC
SSVK
PNAF
ENNR
AEGS
FWMG
AAHF
RMPI
FAIM
KPLE
QITQ
LELT
LSIE
QCTY
CHMT
CAGA
GMPC
VYNA
WNKR
RSVQ
LGPR
RNAD
LRPE
YPNY
MTDK
WRLM
RKRH
GALL
NQHP
DTEM
VDAL
NTSR
QRGS
LDAK
TMAF
WTTN
LNKV
NTNK
PTNP
HPQF
SAIP
STSL
GSTH
THCQ
GMND
QCET
KWLL
LVRV
LWTM
AGHP
IVKR
PTNI
WRRV
CMSW
VMTV
SMKL
ERGG
PTHG
WRLF
VHCN
CVTG
DSSM
LNCC
KGIC
ASFT
AMLG
FMIT
YYRW
TRID
WVTQ
GDYG
AVIR
NNHS
LTAY
EVWM
YRQA
LKSK
NQKA
CVTS
CTVP
WNGI
VERF
SNKI
VERY
LRKY
RWNV
QFLW
TYLN
SYHR
TRLH
DNME
MLSY
GPCV
THQA
GCRT
YKLR
DNTG
HWLG
QMWA
CCQS
LRFT
CYPG
DPVT
NPNM
GLYG
HFPA
ELWL
PTCA
WLIT
DTHG
PLEL
HWSC
QGES
NHGS
RTVR
PICF
PTPW
VCRY
PTWQ
AAPK
QCPT
HYQR
FMRC
WNPL
TACI
AGPF
AIAC
KTEN
WLST
YIIS
MGHL
QDMD
PAYG
NNCE
DSDS
HLTM
PDLV
YSED
VLGE
PWAV
TTSV
TCDR
TMGF
RWRK
RARP
KSKI
QLHL
SPNC
ILHC
HPRC
PHAP
MKSC
GSDL
YQKT
KREP
PISS
QHRL
LQAD
IPMG
SQMC
QWSL
TTEG
YAVV
GAKN
GHPL
KVSR
PCQS
PRYR
CFPD
FHCR
DPGR
VQPC
RTCD
ALWL
LCRY
LLKR
PGKQ
VECS
SRVC
SINW
ALAA
RPYY
YDVC
HGKM
VGGR
DSVF
IRQG
LNVL
GDYS
RFII
RQTH
RVFP
NVWR
MGAV
ATDC
VYIG
QMKK
FEQR
MKKG
RENM
TYSC
QFNL
KFHR
VYVR
LKNM
CCKC
RFNI
VVVW
FMFS
NTQC
HESS
RSAE
PSMR
LNDT
SFSY
QDKD
DLRG
PKCT
FDNN
RQAK
PAKY
SRAE
QNWR
SPGP
ICPG
DTCE
PMTG

one-hybrid fitness for binding parS DNA, 0.374:
KYNN

one-hybrid fitness for binding parS DNA, 0.745:
RHKT

one-hybrid fitness for binding parS DNA, 0.848:
RNSC

one-hybrid fitness for binding parS DNA, 1.01:
RLNG
RFTS

one-hybrid fitness for binding parS DNA, 0.233:
LNWH

From a collection of fitness landscapes (doi:10.1016/j.celrep.2020.107928)
